# Reference: PubChem BioAssay (Tox21)
# Where “and” joins values, the source holds several entries; their conditions need not be identical. Equal values may be shown once. Inconclusive results, whose numbers are uncertain, are shown with a selection of clear calls. For some of these results: Potencies of inconclusive entries are doubtful fits and often do not repeat. The source holds several records for some structures; these can differ, active in one and inactive in another. Calls of active or inactive are those of the source. Unless noted, calls follow the shape of the dose curve; as a rule, active = well fitted curve in the direction sought with a large enough effect in the repeat runs; inconclusive = weak or mixed curves; inactive = no such curve, though single readings can be large; an effect the other way counts as inactive or inconclusive.
# Experiments:
# [1] = target: Glucocorticoid receptor (Homo sapiens) (UniProt P04150); assay: qHTS assay to identify small molecule antagonists of the glucocorticoid receptor (GR) signaling pathway (AID 720692; active = well fitted inhibition curve with a large enough effect in the signal ratio in the repeat runs, not every such curve was filed as active; inconclusive = weak or mixed curves, or effect the other way; inactive = no such curve, though single readings can be large or run the other way; the % refers to the signal ratio; also: % is scaled to controls: 0 for no effect and ±100 for the full control effect); conditions: GR-bla HeLa, beta-lactamase FRET ratio, dexamethasone-stimulated, 18 h; activity change, negative = inhibition: at 58.5 µM (top of the series) unless noted
# Procedure, shortened: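 GR-bla HeLa cells (beta-lactamase reporter under glucocorticoid response element) were pre-plated 4 h at 37 C, treated with compounds plus 5 nM dexamethasone (final) for 18 h, then read by LiveBLAzer B/G FRET fluorescence after 2 h.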
# [2] = qHTS assay to identify small molecule antagonists of the androgen receptor (AR) signaling pathway - cell viability counter screen (AID 743033; also: potency is read from the fitted curve at half-maximal effect; nearly all actives have a fitted effect of over 45% in size)
# [3] = qHTS assay to identify small molecule antagonists of the androgen receptor (AR) signaling pathway using the MDA cell line - cell viability counter screen (AID 743041; also: potency is read from the fitted curve at half-maximal effect; nearly all actives have a fitted effect of over 45% in size); conditions: MDA-kb2 viability, CellTiter-Fluor, 16 h, cells co-treated with R1881 androgen agonist; viability change, negative = cytotoxic: at 70.3 µM (top of the series)
# Procedure, shortened: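 Cells were plated at 3,000 per well and left 5 h. Compounds in DMSO were then pinned in, followed by R1881. After 16 h at 37C, CellTiter-Fluor fluorescence gave viability.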
# [4] = qHTS assay to identify small molecule antagonists of the thyroid receptor (TR) signaling pathway - cell viability counter screen (AID 743064); conditions: GH3.TRE-Luc viability, CellTiter-Fluor, 24 h; activity change, negative = cytotoxic: at 70.3 µM (top of the series) unless noted; also: nearly all actives have a fitted effect of over 50% in size; also: potency is read from the fitted curve at half-maximal effect
# Procedure, shortened: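 Fluorescence from CellTiter-Fluor, added after 23.5 h exposure at 37 °C, reported viability of GH3.TRE-Luc cells co-treated with compound and 1 nM T3. Measured in the same wells as the luciferase TR readout.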
# [5] = qHTS assay to identify small molecule antagonists of the thyroid receptor (TR) signaling pathway (AID 743065); also: nearly all actives have a fitted effect of over 55% in size; also: potency is read from the fitted curve at half-maximal effect
# Procedure, shortened: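 Antagonism measured as loss of luciferase signal in GH3 cells stably carrying a TRE-luciferase reporter, co-treated with compound and T3 (1 nM final) for 23.5 h at 37 C. Viability was read in the same well by CellTiter-Fluor.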
# [6] = tested on: thyroid hormone receptor (rat, GH3 cells); assay: qHTS assay to identify small molecule agonists of the thyroid receptor (TR) signaling pathway (AID 743066; calls by dose curve; also: % is scaled to controls: 0 for no effect and ±100 for the full control effect); conditions: GH3.TRE-Luc cells, TR agonist luciferase, 24 h; activation: at 83.9 µM (top of the series) unless noted
# [7] = target: Estrogen receptor (Homo sapiens) (UniProt P03372); assay: qHTS assay to identify small molecule antagonists of the estrogen receptor alpha (ER-alpha) signaling pathway (AID 743069; active = well fitted curve in the direction sought with a large enough effect in the signal ratio in the repeat runs, not every such curve was filed as active; inconclusive = weak or mixed curves, or effect the other way; inactive = no such curve, though single readings can be large or run the other way; the % refers to the signal ratio; also: potency is read from the fitted curve at half-maximal effect); conditions: HEK293 ER-alpha-UAS-bla, beta-lactamase ratio, antagonist mode; activity, negative = inhibition: at 69.4 µM (top of the series) unless noted
# Procedure, shortened: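 ER-alpha-UAS-bla GripTite HEK293 line; 2% charcoal-stripped FBS overnight; plated, 4 hr 37C/5% CO2; cpd in DMSO + 17beta-estradiol, 18 hr 37C; LiveBLAzer B/G FRET substrate 2 hr RT; fluorescence intensity.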
# [8] = target: Estrogen receptor (Homo sapiens) (UniProt P03372); assay: qHTS assay to identify small molecule agonists of the estrogen receptor alpha (ER-alpha) signaling pathway using the BG1 cell line (AID 743079); conditions: BG1Luc4E2 cells, ERE-luciferase agonist, 22 h; activation: at 70.3 µM (top of the series) unless noted; also: nearly all actives have a fitted effect of over 20% in size; also: potency is read from the fitted curve at half-maximal effect
# [9] = qHTS assay to identify small molecule antagonists of the estrogen receptor alpha (ER-alpha) signaling pathway using the BG1 cell line (AID 743080; calls by dose curve;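 also: BG1 cells stimulated with 17beta-estradiol alongside compound; % is scaled to controls: 0 for no effect and ±100 for the full control effect; nearly all actives have a fitted effect of over 25% in size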); conditions: BG1Luc4E2 ERE-luciferase antagonist mode, luminescence; activity change, negative = inhibition: at 70.3 µM (top of the series) unless noted
# Procedure, shortened: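 BG1-Luc-4E2 cells (endogenous full-length ER-alpha, stable 4×ERE-luciferase) were starved 5 days in phenol-red-free medium with 10% charcoal-stripped FBS, plated 24 h, then given compound plus 17beta-estradiol for 21.5 h at 37 C; ONE-Glo luminescence read after 30 min.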
# [10] = qHTS assay to identify small molecule that activate the aryl hydrocarbon receptor (AhR) signaling pathway - cell viability counter screen (AID 743086); also: potency is read from the fitted curve at half-maximal effect; nearly all actives have a fitted effect of over 45% in size
# Procedure, shortened: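 Cytotoxicity counter screen: CellTiter-Fluor signal (30 min, 37 C) in 4000 HepG2 cells/well carrying the DRE-luciferase reporter, following 24 h compound exposure at 37 C.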
# [11] = target: Peroxisome proliferator-activated receptor gamma (Homo sapiens) (UniProt P37231); assay: qHTS assay to identify small molecule agonists of the peroxisome proliferator-activated receptor gamma (PPARg) signaling pathway (AID 743094; active = well fitted activation curve with a large enough effect in the signal ratio in the repeat runs, not every such curve was filed as active; inconclusive = weak or mixed curves, or effect the other way; inactive = no such curve, though single readings can be large or run the other way; the % refers to the signal ratio; also: % is scaled to controls: 0 for no effect and ±100 for the full control effect); conditions: HEK293H PPARg-UAS-bla, beta-lactamase FRET ratio, 17 h; activation: at 57 µM (top of the series) unless noted
# Procedure, shortened: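 GeneBLAzer PPARg UAS-bla HEK293H cells carrying a stably integrated beta-lactamase reporter were pre-incubated 5 h at 37C, then exposed to compounds in DMSO for 17 h at 37C; LiveBLAzer B/G FRET substrate was added for 1 h at room temperature and fluorescence read.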
# [12] = target: Aromatase (Homo sapiens) (UniProt P11511); assay: qHTS assay to identify aromatase inhibitors (AID 743083); also: % is scaled to controls: 0 for no effect and ±100 for the full control effect; nearly all actives have a fitted effect of over 55% in size
# [13] = qHTS assay to identify small molecule antagonists of the glucocorticoid receptor (GR) signaling pathway - cell viability counter screen (AID 720693); conditions: GR-bla HeLa viability, CellTiter-Glo luminescence, 18 h, with 5 nM dexamethasone present; viability change, negative = cytotoxic: at 58.5 µM (top of the series) unless noted; also: % is scaled to controls: 0 for no effect and ±100 for the full control effect; nearly all actives have a fitted effect of over 55% in size
# [14] = qHTS assay for identifying genotoxic compounds that show differential cytotoxicity against isogenic chicken DT40 cell lines with known DNA damage response pathways - wild type cell line (AID 743012); conditions: DT40 wild type chicken cells viability, CellTiter-Glo, 40 h; activity change, negative = cytotoxicity: at 68.4 µM (top of the series) unless noted; also: nearly all actives have a fitted effect of over 60% in size; also: potency is read from the fitted curve at half-maximal effect
# Procedure, shortened: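 Parental DNA repair-proficient DT40 cells, 300 per well, were pre-incubated ~0.5 h at 37 C/5% CO2, pin-dosed with compounds in DMSO, then incubated 40 h. Viability was read as CellTiter-Glo luminescence after 30 min at room temperature.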
# [15] = qHTS assay for identifying genotoxic compounds that show differential cytotoxicity against isogenic chicken DT40 cell lines with known DNA damage response pathways - Rev3 mutant cell line (AID 743014); conditions: chicken DT40 Rev3-/- viability, CellTiter-Glo, 40 h; activity, negative = cytotoxicity: at 68.4 µM (top of the series); also: nearly all actives have a fitted effect of over 55% in size; also: potency is read from the fitted curve at half-maximal effect
# [16] = qHTS assay for identifying genotoxic compounds that show differential cytotoxicity against isogenic chicken DT40 cell lines with known DNA damage response pathways - Rad54/Ku70 mutant cell line (AID 743015); conditions: DT40 Rad54/Ku70 mutant viability, CellTiter-Glo, 40 h; activity change, negative = cytotoxicity: at 66.8 µM (top of the series); also: potency is read from the fitted curve at half-maximal effect; nearly all actives have a fitted effect of over 60% in size
# [17] = qHTS assay to identify small molecule antagonists of the estrogen receptor alpha (ER-alpha) signaling pathway using the BG1 cell line - cell viability counter screen (AID 743081); conditions: BG1Luc4E2 viability, CellTiter-Fluor, 22 h; activity change, negative = cytotoxicity: at 70.3 µM (top of the series);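 also: compound given together with 17beta-estradiol as the ER stimulus; nearly all actives have a fitted effect of over 45% in size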; also: potency is read from the fitted curve at half-maximal effect
# [18] = target: Aryl hydrocarbon receptor (Homo sapiens) (UniProt P35869); assay: qHTS assay to identify small molecule that activate the aryl hydrocarbon receptor (AhR) signaling pathway (AID 743085); also: potency is read from the fitted curve at half-maximal effect; nearly all actives have a fitted effect of over 15% in size
# Procedure, shortened: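 Cell line HG2L7.5c1 (human hepatoma, 20× DRE-luc). Plated, 5 h 37C, compound/DMSO added, 24 h 37C. CellTiter-Fluor 30 min 37C → fluorescence; then ONE-Glo 30 min RT → luminescence.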
# [19] = target: Glucocorticoid receptor (Homo sapiens) (UniProt P04150); assay: qHTS assay to identify small molecule agonists of the glucocorticoid receptor (GR) signaling pathway (AID 720691; active = well fitted activation curve with a large enough effect in the signal ratio in the repeat runs, not every such curve was filed as active; inconclusive = weak or mixed curves, or effect the other way; inactive = no such curve, though single readings can be large or run the other way; the % refers to the signal ratio; also: % is scaled to controls: 0 for no effect and ±100 for the full control effect); conditions: GR-bla HeLa, beta-lactamase reporter ratio, 18 h; activation: at 62.4 µM (top of the series) unless noted
# Procedure, shortened: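 GR-bla HeLa cells (beta-lactamase reporter under glucocorticoid response element) were plated 4 h at 37 C/5% CO2, given compounds in DMSO, and incubated 18 h at 37 C. LiveBLAzer B/G FRET substrate was added for 2 h at room temperature, then fluorescence intensity read.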
# [20] = target: Peroxisome proliferator-activated receptor delta (Homo sapiens) (UniProt Q03181); assay: qHTS assay to identify small molecule antagonists of the peroxisome proliferator-activated receptor delta (PPARd) signaling pathway (AID 743215; active = well fitted inhibition curve with a large enough effect in the signal ratio in the repeat runs, not every such curve was filed as active; inconclusive = weak or mixed curves, or effect the other way; inactive = no such curve, though single readings can be large or run the other way; the % refers to the signal ratio); conditions: HEK293H PPARd-UAS-bla, beta-lactamase FRET ratio, antagonist, 17 h; ratio activity, negative = inhibition: at 62 µM (top of the series) unless noted
# Procedure, shortened: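 PPARd UAS-bla HEK293H cells were pre-incubated 5 h at 37 C, then given test compounds in DMSO plus agonist L165041 (300 nM final). After 17 h at 37 C, beta-lactamase FRET substrate was added; fluorescence read after 2 h at room temperature.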
# [21] = qHTS assay to identify small molecule antagonists of the estrogen receptor alpha (ER-alpha) signaling pathway - cell viability counter screen (AID 743074; calls by dose curve)
# [22] = target: Estrogen receptor (Homo sapiens) (UniProt P03372); assay: qHTS assay to identify small molecule agonists of the estrogen receptor alpha (ER-alpha) signaling pathway (AID 743075; calls by dose curve); conditions: HEK293 ER-alpha-UAS-bla, beta-lactamase FRET ratio, 18 h; activation: at 70.1 µM (top of the series) unless noted
# [23] = qHTS assay to identify aromatase inhibitors - cell viability counter screen (AID 743084); conditions: MCF-7 aro ERE viability, CellTiter-Fluor, 24 h; activity change, negative = cytotoxicity: at 70.3 µM (top of the series)
# Tags tell the direction and shape of the fitted curve or compound fluorescence and quenching.
# UniProt P37231, sequence (P37231 whole entry, looked up): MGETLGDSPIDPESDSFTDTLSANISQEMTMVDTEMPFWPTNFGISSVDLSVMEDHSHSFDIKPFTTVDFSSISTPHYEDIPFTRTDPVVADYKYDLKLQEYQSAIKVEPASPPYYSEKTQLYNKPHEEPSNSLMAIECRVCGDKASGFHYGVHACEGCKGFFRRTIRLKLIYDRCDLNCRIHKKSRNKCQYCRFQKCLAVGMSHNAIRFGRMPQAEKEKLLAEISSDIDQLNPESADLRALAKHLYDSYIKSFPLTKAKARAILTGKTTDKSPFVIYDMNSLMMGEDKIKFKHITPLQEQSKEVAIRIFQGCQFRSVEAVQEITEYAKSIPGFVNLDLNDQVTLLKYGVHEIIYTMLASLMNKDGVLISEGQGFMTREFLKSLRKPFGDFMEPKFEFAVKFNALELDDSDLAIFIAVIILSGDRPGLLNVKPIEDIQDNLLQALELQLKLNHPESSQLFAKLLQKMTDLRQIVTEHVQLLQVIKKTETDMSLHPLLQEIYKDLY
# UniProt P03372, sequence (P03372 whole entry, looked up): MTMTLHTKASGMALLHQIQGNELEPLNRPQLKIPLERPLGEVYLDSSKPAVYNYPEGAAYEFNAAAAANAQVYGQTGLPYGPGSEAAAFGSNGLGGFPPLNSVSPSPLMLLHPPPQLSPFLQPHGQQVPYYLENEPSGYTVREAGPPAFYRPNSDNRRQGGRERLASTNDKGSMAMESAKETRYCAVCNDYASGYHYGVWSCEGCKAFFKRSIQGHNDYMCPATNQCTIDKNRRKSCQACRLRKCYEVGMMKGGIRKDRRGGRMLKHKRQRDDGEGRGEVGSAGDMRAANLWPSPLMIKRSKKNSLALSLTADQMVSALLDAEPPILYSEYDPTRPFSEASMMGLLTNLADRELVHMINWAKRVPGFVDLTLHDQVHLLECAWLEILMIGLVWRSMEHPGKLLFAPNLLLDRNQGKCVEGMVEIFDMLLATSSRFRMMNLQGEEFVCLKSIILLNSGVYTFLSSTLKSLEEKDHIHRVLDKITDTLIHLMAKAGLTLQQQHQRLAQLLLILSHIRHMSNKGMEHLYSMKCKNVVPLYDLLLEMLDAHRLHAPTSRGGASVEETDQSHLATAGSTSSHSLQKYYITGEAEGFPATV
# UniProt P04150, sequence (P04150 whole entry, looked up): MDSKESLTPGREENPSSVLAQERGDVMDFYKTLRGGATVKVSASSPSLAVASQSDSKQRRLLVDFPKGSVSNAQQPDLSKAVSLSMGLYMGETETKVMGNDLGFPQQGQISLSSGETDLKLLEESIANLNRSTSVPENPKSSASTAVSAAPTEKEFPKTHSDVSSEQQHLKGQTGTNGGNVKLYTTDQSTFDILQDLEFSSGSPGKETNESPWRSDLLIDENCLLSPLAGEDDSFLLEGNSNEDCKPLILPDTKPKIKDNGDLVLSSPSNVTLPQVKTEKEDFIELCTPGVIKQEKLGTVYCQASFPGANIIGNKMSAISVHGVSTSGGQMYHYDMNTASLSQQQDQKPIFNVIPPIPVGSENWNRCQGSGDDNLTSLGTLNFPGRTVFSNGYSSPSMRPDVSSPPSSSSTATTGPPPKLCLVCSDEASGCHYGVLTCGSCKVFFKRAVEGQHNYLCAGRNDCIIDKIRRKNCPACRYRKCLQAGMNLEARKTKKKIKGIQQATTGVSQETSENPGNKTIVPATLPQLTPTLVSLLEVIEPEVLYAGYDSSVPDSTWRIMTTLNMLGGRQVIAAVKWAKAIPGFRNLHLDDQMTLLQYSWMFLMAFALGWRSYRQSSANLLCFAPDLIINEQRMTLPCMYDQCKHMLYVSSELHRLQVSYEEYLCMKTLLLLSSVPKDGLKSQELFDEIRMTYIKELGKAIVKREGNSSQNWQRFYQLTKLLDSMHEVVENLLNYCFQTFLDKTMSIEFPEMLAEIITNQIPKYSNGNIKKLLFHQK
# UniProt P35869, sequence (P35869 whole entry, looked up): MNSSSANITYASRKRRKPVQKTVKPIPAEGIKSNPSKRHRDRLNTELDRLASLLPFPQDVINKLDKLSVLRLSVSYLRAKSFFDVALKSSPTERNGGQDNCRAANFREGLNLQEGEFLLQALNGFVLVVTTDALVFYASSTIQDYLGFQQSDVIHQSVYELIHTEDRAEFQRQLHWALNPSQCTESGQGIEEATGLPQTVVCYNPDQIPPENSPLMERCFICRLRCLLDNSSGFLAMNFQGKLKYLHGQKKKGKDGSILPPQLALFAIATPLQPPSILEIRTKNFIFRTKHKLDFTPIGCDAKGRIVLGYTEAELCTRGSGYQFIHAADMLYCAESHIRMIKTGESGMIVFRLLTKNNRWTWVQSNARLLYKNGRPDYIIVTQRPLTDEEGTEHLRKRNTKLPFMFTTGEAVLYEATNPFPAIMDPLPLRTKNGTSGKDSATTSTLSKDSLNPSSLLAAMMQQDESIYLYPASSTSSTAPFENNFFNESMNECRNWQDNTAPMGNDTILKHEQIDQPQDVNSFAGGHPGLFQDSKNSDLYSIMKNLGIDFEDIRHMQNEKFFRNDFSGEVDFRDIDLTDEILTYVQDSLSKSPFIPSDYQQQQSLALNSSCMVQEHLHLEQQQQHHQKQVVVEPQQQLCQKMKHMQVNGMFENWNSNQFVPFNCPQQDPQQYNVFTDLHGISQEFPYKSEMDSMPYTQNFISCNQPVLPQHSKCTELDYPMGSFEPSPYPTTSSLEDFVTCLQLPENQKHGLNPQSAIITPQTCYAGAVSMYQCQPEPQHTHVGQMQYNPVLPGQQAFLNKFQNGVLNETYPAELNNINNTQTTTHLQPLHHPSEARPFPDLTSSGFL
# UniProt Q03181, sequence (Q03181 whole entry, looked up): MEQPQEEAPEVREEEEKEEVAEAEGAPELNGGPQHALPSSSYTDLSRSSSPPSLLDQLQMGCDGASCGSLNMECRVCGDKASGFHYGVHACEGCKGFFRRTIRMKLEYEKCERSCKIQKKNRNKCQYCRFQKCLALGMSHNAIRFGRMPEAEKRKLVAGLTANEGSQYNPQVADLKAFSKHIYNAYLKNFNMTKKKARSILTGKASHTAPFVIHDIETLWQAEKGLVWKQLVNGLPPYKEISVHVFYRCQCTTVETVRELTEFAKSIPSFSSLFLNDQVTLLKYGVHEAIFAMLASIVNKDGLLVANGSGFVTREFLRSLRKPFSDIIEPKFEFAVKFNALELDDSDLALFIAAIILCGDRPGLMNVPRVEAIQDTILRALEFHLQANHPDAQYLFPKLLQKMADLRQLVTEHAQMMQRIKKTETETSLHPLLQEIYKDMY
# UniProt P11511, sequence (P11511 whole entry, looked up): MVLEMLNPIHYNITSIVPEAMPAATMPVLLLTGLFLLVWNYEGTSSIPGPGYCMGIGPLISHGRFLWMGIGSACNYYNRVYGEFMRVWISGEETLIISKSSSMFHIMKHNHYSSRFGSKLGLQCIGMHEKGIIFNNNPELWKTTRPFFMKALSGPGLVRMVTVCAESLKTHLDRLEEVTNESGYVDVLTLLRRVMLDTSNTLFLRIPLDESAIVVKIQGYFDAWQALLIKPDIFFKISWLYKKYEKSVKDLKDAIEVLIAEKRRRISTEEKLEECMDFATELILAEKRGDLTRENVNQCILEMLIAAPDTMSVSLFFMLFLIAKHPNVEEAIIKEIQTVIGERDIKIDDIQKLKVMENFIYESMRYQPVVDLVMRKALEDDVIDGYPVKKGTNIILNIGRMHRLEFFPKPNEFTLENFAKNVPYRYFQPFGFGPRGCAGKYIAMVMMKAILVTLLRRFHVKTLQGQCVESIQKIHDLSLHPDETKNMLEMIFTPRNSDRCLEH
smiles,measurement,setting,value
C[C@@H]1[C@@H]2Cc3ccc(O)cc3[C@@]1(C)CCN2CCc1ccccc1,"activity change, negative = inhibition",[1],inconclusive: -4.12%
same,Potency,[2],"inconclusive: 60.9 µM [cytotoxic, single point]"
same,Potency,[3],"inconclusive: 67.8 µM [cytotoxic, single point]"
same,Potency,[4],active: 60.4 µM
same,Potency,[5],active: 53.8 µM
same,activation,[6],inconclusive: -9.13% [phenotype inactive]
same,Potency,[7],"inconclusive: 30.5 µM [fluorescent, partial curve, poor fit]"
same,activation,[8],inconclusive: 12% [phenotype inactive]
same,"activity change, negative = inhibition",[9],inconclusive: -21.5%
same,Potency,[10],inconclusive: 67.8 µM
same,activation,[11],inconclusive: -11.5%
C1=C\CC/C=C\CC/C=C\CC/1,Potency,[1],inactive
CNc1ccccc1,Potency,[1],inactive
Cc1ccc([N+](=O)[O-])cc1N,Potency,[12],inactive
Cc1ccccc1-n1c(C)nc2ccccc2c1=O,Potency,[1],inactive
same,Potency,[13],inactive
same,Potency,[14],inconclusive: 33.5 µM [cytotoxic]
same,Potency,[15],"inconclusive: 26.6 µM [cytotoxic, partial curve, poor fit]"
same,Potency,[16],"inconclusive: 33.5 µM [cytotoxic, single point]"
same,Potency,[5],"inconclusive: 76.1 µM [inhibitor, partial curve, poor fit]"
same,Potency,[8],inactive and active: 53.9 µM
same,Potency,[17],inactive
same,Potency,[18],"inconclusive: 33.5 µM [activator, single point] and inconclusive: 27 µM [activator, partial curve, poor fit]"
same,Potency,[11],inactive
CCON=O,Potency,[19],inactive
same,Potency,[14],inactive
same,Potency,[4],inactive
same,Potency,[8],"inconclusive: 33.5 µM [activator, partial curve, poor fit]"
C[N+]12CCC(CC1)C(OC(=O)C(O)(c1ccccc1)c1ccccc1)C2 (configuration not stated),Potency,[20],inactive
O=C(O)c1ccccc1[O-].O=C(O)c1ccccc1[O-].[Zn+2],Potency,[15],inactive
same,Potency,[4],inactive
same,Potency,[21],"inconclusive: 6.74 µM [rising, full curve]"
CC(=O)OC1CN2CCC1CC2 (configuration not stated),Potency,[5],inactive
CCC(C)(S(=O)(=O)CC)S(=O)(=O)CC,Potency,[14],"inconclusive: 33.5 µM [rising, partial curve, poor fit]"
same,Potency,[22],inactive
same,Potency,[17],"inconclusive: 0.119 µM [rising, single point]"
same,Potency,[23],inactive
